Measurements as given in PubChem BioAssay AID1745845 (National Center for Advancing Translational Sciences (NCATS), 2022).
The campaign covered roughly 360,000 compounds. About 2,600 (0.72%) were called active. The shares of active, inactive and inconclusive entries below differ from those in the screen. Calls come from the whole dose curve; as a rule, active = well fitted inhibition curve with a large enough effect; inconclusive = small, poorly fitted or top-dose-only effect; inactive = no such curve, though single readings can be large or run the other way. Where the call is inconclusive, the potency comes from a doubtful curve fit.

Assay: Primary qHTS for Inhibitors of ATXN expression; note: nearly all actives have a fitted effect of over 55% in size
Conditions: HEK-293 ATXN2-luciferase reporter, luminescence, 24 h; activity change, negative = inhibition: at 57 µM (top of the series)
Summary of the method: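 qHTS (up to 57 uM final) was run with 24 h compound exposure of reporter cells at 37 °C. Each well was multiplexed: SteadyGlo luminescence measured ATXN2-luciferase expression after a fluorogenic Gly-Phe-AFC viability readout (25 uM final).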
% is set by controls: 0 for no effect and ±100 for the full control effect; potency is the fitted concentration of half-maximal effect; tags give direction and shape of the fitted curve.

Activity change, negative = inhibition, inconclusive:
CCn1c(=O)c(C(=O)NNC(=O)c2ccccc2F)c(O)c2ccccc21 -41.4% [inhibitor]

Activity change, negative = inhibition, inactive:
C[C@H](NC(=O)N1CCn2c1nc1ccccc12)C(=O)NCc1ccc2c(c1)OCO2 7.6%, CC1=C(C)CS(=O)N(c2ccc(S(N)(=O)=O)cc2)C1 (stereo not given) 2.25%, Cc1ccc(NC(=O)N2CCCC(c3ccccc3)C2)cc1 (stereo not given) 7.46%, O=[N+]([O-])c1ccc(Sc2n[nH]c(-c3ccc(Cl)cc3Cl)n2)nc1 2.58%, C=CCn1c(C)cc(C(=O)COc2ncnc3sccc23)c1C -34.7%, CC1CCc2nc3ccc(S(=O)(=O)N4CCC(C(=O)NC(C)c5ccccc5)CC4)cc3c(C(=O)O)c2C1 (stereo not given) 5.31%, CC(C)C[C@@H](CN1CCC[C@@H]1CN1C(=S)NC[C@@H]1Cc1ccccc1)N1C[C@H](Cc2ccc(O)cc2)N(CCc2ccccc2)C1=S -26.9%, Cc1ccc(S(=O)(=O)N2[C@@H](c3ccccc3)C(C(=O)O)=CC[C@H]2c2ccc(C(C)C)cc2)cc1 2.39%, COc1ccccc1N1CCN(C(=O)c2nc(SC)ncc2Cl)CC1 12.1%, CCOC(=O)C(C(=O)N(C)C)c1ncc(C(F)(F)F)cc1Cl (stereo not given) -2.91%, CC1S/C(=C(\C#N)C(=O)NCc2ccco2)N(Cc2ccco2)C1=O (stereo not given) 7.04%, COc1ccc(C)cc1NC(=O)CCS(=O)(=O)c1cc2c3c(c1)CCN3C(=O)CC2 1.06%, CC(=O)CC1c2ccccc2C=C(c2ccsc2)N1c1ccc(-c2cccs2)cc1 (stereo not given) -14.8%, COc1cccc(NC(=S)N2CCCC2c2ccc(OC)c(OC)c2)c1 (stereo not given) 43.1%, O=C(CNCc1ccc(Cl)cc1)N1CCc2ccccc2C1 5.91%, CCn1cc(C(=O)NC(=S)Nc2ccccc2Br)cn1 2.77%, CCOC(=O)c1c(NC(=O)CSc2nc3ccccc3o2)sc(C)c1C 21.1%, COc1c(F)c(F)c(C(=O)Nc2ccc3oc(-c4ccncc4)nc3c2)c(F)c1F 1%, CCC(CO)Oc1cc(NC(=O)c2ccccc2[N+](=O)[O-])c2ncn(C(C)C)c2c1 (stereo not given) -2.31%, C[C@@H]1COC(=O)[C@H](Cc2ccc(F)cc2)CC/C=C/C[C@@H](CC(=O)N[C@H](CO)Cc2ccccc2)C(=O)N1 5.29%, COc1ccc(/C=N/Nc2nnc(Cc3ccccc3)c(=O)[nH]2)cc1 -0.177%, CCc1ccccc1NC(=O)c1ccccc1Sc1ccc([N+](=O)[O-])cc1Cl -18.4%

Potency, active:
COc1ccc(C(=O)Nc2nnc(-c3ccco3)s2)cc1 7.94 µM, CCSc1nc2ccccc2n1C(=O)/C=C/c1ccc(OC)c(OC)c1 7.94 µM, CC(C)(C)c1ccc(C(=O)Nc2nnc(SCC(=O)NCC3CCCO3)s2)cc1 (stereo not given) 15.8 µM, NC1=C(Br)C(=O)c2ncccc2C1=O 5.32 µM, CCOC(=O)N1CCc2c(sc(NCc3sccc3C)c2C(=O)Nc2ccc(OC)cc2OC)C1 14.1 µM, CCOC(=O)c1c(C)[nH]c(C2=NNC(=NC3CC3)SC2)c1C 10.6 µM, COc1ccc(NC(=O)/C(Cl)=C(/Cl)S(=O)(=O)Cc2ccccc2)cn1 12.6 µM, CC1=NNC(=O)/C1=C\c1cn(-c2ccccc2)nc1-c1ccc(F)cc1 7.52 µM, CCCc1nc2c(=O)n(C)c(=O)nc-2n(C)n1 4.23 µM, COc1ccc(C(NC(=O)C(C)C)c2ccc3cccnc3c2O)cc1 (stereo not given) 3.16 µM, Cc1ccc(S(=O)(=O)c2ccc([N+](=O)[O-])o2)cc1 6.7 µM

Potency, inactive:
COC(=O)C1=C(C)NC(C)=C(C(=O)OC)C1C(=O)OC(C)C(=O)c1ccccc1 (stereo not given)

Potency, inconclusive:
COc1ccc(-c2coc3c(C(=O)NCc4ccc(OC)c(OC)c4)cccc23)c(C)c1 15.8 µM [inhibitor, partial curve, poor fit], CN(CC(=O)Nc1cccc(S(=O)(=O)N2CCOCC2)c1)CC(=O)Nc1ccc(Cl)c(C(F)(F)F)c1 39.8 µM [inhibitor, single point], CCc1nc2c(OCc3ccc(Cl)cc3)cccn2c1N(C=O)Cc1ccccc1 39.8 µM [inhibitor, single point], O=C(Nc1ccc(Cl)cc1)C1Cc2c(-c3ccccc3Oc3ccccc3)ccnc2O1 (stereo not given) 28.2 µM [inhibitor, single point], CCn1c2ccccc2c2cc(NC(=O)CSc3nnc(-c4cccc(F)c4)o3)ccc21 20 µM [inhibitor, partial curve, poor fit], CC1(Cc2ccc3c(c2)OCO3)C(=O)Nc2ccc(-c3cccc(C(F)(F)F)c3)cc21 (stereo not given) 39.8 µM [inhibitor, single point], C#CC(=O)CC1(CN(Cc2ccccc2)C(=O)OC(C)(C)C)CCCCC1 31.6 µM [inhibitor, single point], OC[C@@H]1CN(Cc2ccc(Cl)cc2)C[C@H](n2cnc3c(NCc4ccc(F)cc4)ncnc32)O1 20 µM [inhibitor, partial curve, poor fit], FC(F)(F)c1ccc(-c2cccc3c2C2CC3CCN2C(=S)NCCc2ccccc2)cc1 (stereo not given) 20 µM [inhibitor, partial curve, poor fit], CCn1c(-c2ccc(C)cc2)nn(CC(=O)NCCc2ccccc2)c1=S 4.23 µM [inhibitor, partial curve, poor fit], Cc1cc(C)cc(NC(=O)C(Cc2ccccc2)NS(=O)(=O)c2ccc3c(c2)c(=O)n(C)c(=O)n3C)c1 (stereo not given) 35.5 µM [inhibitor, partial curve, poor fit], CC(Oc1ccc(F)cc1)C(=O)N1CCC(c2nc3ccccc3s2)CC1 (stereo not given) 28.2 µM [inhibitor, single point], COc1cccc(N2CCN(CC(=O)Nc3ccccc3C(=O)NCCc3ccccc3)CC2)c1 25.1 µM [inhibitor, single point], Cc1ccc(CN2CCC(CNC(=O)Nc3ccc(Cl)cc3)C2)cc1 (stereo not given) 39.8 µM [inhibitor, single point], CCOc1ccc(N2CC(c3nc4ccccc4n3CCCOc3ccccc3)CC2=O)cc1 (stereo not given) 25.1 µM [inhibitor, single point], O=S(=O)(c1cccs1)N1CCN(c2ccc(O)cc2)CC1 2.51 µM [inhibitor, full curve], C/C(CC(=O)Nc1ccccn1)=N\NC(=O)c1ccccc1O 39.8 µM [inhibitor, single point], C=CCN1C(=O)S/C(=C/c2ccc(Sc3nc4ccccc4[nH]3)o2)C1=O 22.4 µM [inhibitor, single point], Nc1nc(/C=C/c2ccc(F)cc2)nc(-c2ccccc2O)n1 39.8 µM [inhibitor, single point], Cc1[nH]nc(C(F)(F)F)c1N=NN1CCOCC1 12.6 µM [inhibitor, partial curve], COC(=O)[C@]12CCCCC=C1N(Cc1cccc3ccccc13)C(=O)[C@H](CC(=O)NCc1ccc(OC)c(OC)c1)C2 31.6 µM [inhibitor, partial curve, poor fit], OC(c1ccccc1)(c1ccccc1)C1CCN(CCCOc2ccc(F)cc2)CC1 25.1 µM [inhibitor, single point], Cc1cccc(-n2c(O)c(C=Nc3cc(O)ccc3C)c3ccccc3c2=O)n1 8.44 µM [inhibitor, partial curve, poor fit], CCN(CC)C(=O)c1cccc(-c2csc(C(O)c3ccc(F)cc3)n2)c1 (stereo not given) 25.1 µM [inhibitor, single point], Cc1cc(=O)n2c3c(c4c(cc13)c(CN(C)C)cc(=O)n4C)OC2 28.2 µM [inhibitor, single point], Cc1cn[nH]c1 8.63 µM [inhibitor, partial curve, poor fit], Cc1ccc(Cl)cc1N1CCN(C(=O)C2(S(=O)(=O)c3ccc(Cl)cc3)CC2)CC1 14.1 µM [inhibitor, partial curve, poor fit], Cc1ccc2oc(-c3cccc(NC(=O)c4cc(-n5cnnc5)ccc4Cl)c3)nc2c1 22.4 µM [inhibitor, single point], COc1ccccc1C1Nc2ccccc2-n2c(-c3ccccc3)c3c(=O)n(C)c(=O)n(C)c3c21 (stereo not given) 3.55 µM [inhibitor, partial curve, poor fit], COc1cccc(S(=O)(=O)NCc2ccc(C(=O)N3CCN(c4ccccc4)CC3)cc2)c1 12.6 µM [inhibitor, partial curve], Nc1ccc(N2CCN(c3ncc(C(F)(F)F)cc3Cl)CC2)c(C(F)(F)F)c1 31.6 µM [inhibitor, single point], Cc1ccc2nc(-c3ccc(SCC(=O)Nc4nnc(C)s4)nc3)[nH]c2c1 37.7 µM [inhibitor, single point], N#Cc1cccc(Nc2c3c(nc4ccccc24)CCCC3)c1 31.6 µM [inhibitor, single point], O=c1cc(CCl)nc(Cc2c(Cl)cccc2Cl)[nH]1 10.6 µM [inhibitor, partial curve, poor fit], Cc1ccc(S(=O)(=O)N2CCN(C(=O)CCCOc3ccc(Cl)cc3C)CC2)cc1 14.1 µM [inhibitor, partial curve]
